In the supplement of paper PMC10338343:
± gives the standard deviation. This is a selection; strong and weak results do not stand in their true shares.

system: MIWI (PIWIL1) piRISC loaded with piRNA #1 (30 nt); assay: pre-steady-state target cleavage rate (min^-1); MIWI and MILI are mouse PIWI proteins and EfPiwi is from a freshwater sponge; tags in brackets are library labels; higher = faster piRNA-guided slicing of the target; details: guide: piRNA #1 5'p-UGAGGUAGUAGGUUGUAUAGUAUCCAGAGG; auxiliary factor: 500 nM mouse GTSF1
Method in brief: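 At 33 °C in HEPES–potassium acetate buffer, a transcribed, DNA-blocked target RNA library […] was exposed for 0–8 or 0–960 min to 1 nM active affinity-purified piRISC carrying a single synthetic guide, with or without 500 nM GTSF1 partner protein. Uncleaved targets were sequenced and normalised to depth and to weakly complementary targets. With three trials pooled and k3 capped at 0.0001 min^-1, a burst-and-steady-state fit produced the pre-steady-state cleavage rate.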
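Further: 1 nM active piRISC with 0.1 nM target library at 33 °C single turnover.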

Row | Sequence | pre-steady-state target cleavage rate
1 | GGAGACCUUACUAUACUAGCUACUACCUCA | 0.101 ± 0.012
2 | GGAGACCUAUCUAUACAACGUACUACCUGA | 0.0384 ± 0.0093
3 | GGUCUGGAUACUAUACAACCUUCUACCACA | 0.221 ± 0.036
4 | GGACUGGAUACUAUACUACCUACUACGUCA | 0.886 ± 0.095
5 | GGAGACGAAUGUAUACAACCUACUACCUCA | 0.474 ± 0.054
6 | GGAGACGAUACUAAACAACCUACUUCCUCA | 0.35 ± 0.045
7 | GGUCUGGAUACAAUACAACCUACUUCCUCA | 0.204 ± 0.044
8 | GGUCUGGAUACUAACAACCUACUACCUCA | 1.81 ± 0.14
9 | GGAGACCUUAGUUUACAACCUACUACCUCA | 0.0932 ± 0.032
10 | CCUCUGGUUACUAUACAACGUACUACCUCA | 0.405 ± 0.026
11 | GGAGACGAGACUAUACAACCUACUACCUCA | 1.63 ± 0.11
12 | CCUCUGGUUACUAUACAACCUACUACCUCA | 2.29 ± 0.13
13 | GGAGACCUAUCUAUUCAACCUACUACGUCA | 0.247 ± 0.041
14 | GGAGAGGAUACUAUAGAACCUACUACCUGA | 0.107 ± 0.021
15 | GGAGUGGAAACUAUACAACGUACUACCUCA | 0.673 ± 0.037
16 | GGUCUGGAUACUAUACAACCUACCUACCUCA | 1.12 ± 0.072
17 | GGAGAGGAUACUUUACAACCUACUACCUGA | 0.243 ± 0.033
18 | GCUCUGGAAACUAUACAACCUAGUACCUCA | 0.688 ± 0.13
19 | GGUCUGGGAUACUAUACAACCUACUACCUCA | 1.88 ± 0.1
20 | GGAGAGGAUACUAUACAUCCUAGUACCUCA | 0.0746 ± 0.019
21 | GGACUGGAUACAAUACAACGUACUACCUCA | 0.743 ± 0.063
22 | GGACUGGAUACUAUACAACCUUCUACCUGA | 0.136 ± 0.038
23 | GGACAGGAUACUAUACAACGUACUACCUCA | 0.705 ± 0.043
24 | GGAGACCUAUGUAUACAACCUUGAUGGAGA [g10:g19:cont:t1A] | < 0.0001
